From PubChem BioAssay AID588453 (National Center for Advancing Translational Sciences (NCATS), 2011)
About 4,000 (1%) of roughly 390,000 compounds were called active. The inconclusive results got no clear call from the source; some entries with a clear call stand among them for comparison. Calls follow the shape of the dose curve; as a rule, active = well fitted inhibition curve with a large enough effect; inconclusive = small, poorly fitted or top-dose-only effect; inactive = no such curve, though single readings can be large or run the other way. Where the call is inconclusive, the potency comes from a doubtful curve fit.

Molecular target: Thioredoxin reductase 1, cytoplasmic (Rattus norvegicus) (UniProt O89049)
Sequence of UniProt O89049 (O89049 whole entry, looked up): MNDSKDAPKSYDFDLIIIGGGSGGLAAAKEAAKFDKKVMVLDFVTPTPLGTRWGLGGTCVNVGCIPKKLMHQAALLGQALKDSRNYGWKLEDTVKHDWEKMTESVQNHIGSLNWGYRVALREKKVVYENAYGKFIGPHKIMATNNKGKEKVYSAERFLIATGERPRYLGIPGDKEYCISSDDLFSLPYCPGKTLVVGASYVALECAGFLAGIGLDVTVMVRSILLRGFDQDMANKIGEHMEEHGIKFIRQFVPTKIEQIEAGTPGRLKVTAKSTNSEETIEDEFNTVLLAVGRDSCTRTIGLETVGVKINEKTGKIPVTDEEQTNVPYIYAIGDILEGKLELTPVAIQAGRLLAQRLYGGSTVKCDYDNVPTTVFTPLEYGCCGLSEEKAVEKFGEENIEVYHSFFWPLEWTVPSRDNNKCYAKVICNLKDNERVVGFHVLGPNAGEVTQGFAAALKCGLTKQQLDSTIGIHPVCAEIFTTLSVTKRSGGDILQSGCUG
Assay: qHTS Assay for Inhibitors of Mammalian Selenoprotein Thioredoxin Reductase 1 (TrxR1): qHTS; also: nearly all actives have a fitted effect of over 65% in size
Settings: recombinant rTrxR1, NADPH fluorescence consumption, selenite substrate; series mostly up to 114 µM; activity change, negative = inhibition: at the top concentration
In short: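 Rat TrxR1 (90 nM in the dispensed reagent) was pre-reduced with 400 uM NADPH for 5 min at room temperature, then incubated with compound for 15 min. After 400 uM selenite was added, NADPH fluorescence (Ex 340/Em 450 nm) was followed for 8 min.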
% is scaled to controls: 0 for no effect and ±100 for the full control effect; potency is read from the fitted curve at half-maximal effect; tags tell the direction and shape of the fitted curve.

| Structure (SMILES) | Potency | activity change, negative = inhibition |
| --- | --- | --- |
| CCC(=O)Nc1ccc(C=C(C(C)=O)C(C)=O)cc1 | inconclusive: 50.1 µM [inhibitor, partial curve, poor fit] | – |
| O=C(CN1CCN(S(=O)(=O)c2ccc(F)cc2)CC1)NC1CCCC1 | inconclusive: 79.4 µM [inhibitor, partial curve, poor fit] | – |
| COc1ccc(NC(=O)C2CCN(S(=O)(=O)c3cccc4nonc34)CC2)c(OC)c1 | inconclusive: 39.8 µM [inhibitor, single point] | – |
| NNc1nc2c(Cl)ccc(Cl)c2s1 | inconclusive: 70.8 µM [inhibitor, partial curve] | – |
| CN1CC=C2C(C#N)=C(N)C(C#N)(C#N)[C@H](c3cccs3)[C@H]2C1 | inconclusive: 50.1 µM [inhibitor, partial curve] | – |
| Cc1cc(C)c(O)c(CN(C)Cc2cc(Cl)cc(Cl)c2O)c1 | inconclusive: 50.1 µM [inhibitor, partial curve, poor fit] | – |
| CCc1ccc(S(=O)(=O)ON2C(=O)c3ccccc3C2=O)cc1 | inconclusive: 5.01 µM [inhibitor, partial curve] | – |
| O=C1C2C3C=CC(O3)C2C(=O)N1CC(O)c1ccccc1 (stereo unspecified) | active: 50.1 µM | – |
| Cc1cc2cc(CN(Cc3ccc4c(c3)OCO4)C(=O)c3ccco3)c(=O)[nH]c2cc1C | inconclusive: 17.8 µM [inhibitor, full curve] | – |
| COc1cccc(OC)c1C(=O)NC(=S)Nc1ccc2oc(-c3ccncc3)nc2c1 | inconclusive: 39.8 µM [inhibitor, partial curve] | – |
| Cc1onc(-c2ccccc2)c1C(=O)NNC(=S)NC(=O)c1ccc(Br)cc1 | inconclusive: 50.1 µM [inhibitor, partial curve] | – |
| COc1ccc(CNC(=O)c2cnn(-c3ccc(OC)cc3)c2C2CCN(C(=O)OC(C)(C)C)CC2)cc1 | – | inactive: 26.7% |
| O=C(Nc1ccccc1N1CCOCC1)c1ccc([N+](=O)[O-])s1 | inconclusive: 56.2 µM [inhibitor, partial curve] | – |
| O=S(=O)(c1ccc(Cl)cc1)c1ccccn1 | – | inactive: 26% |
| COc1ccc(S(=O)(=O)N(C)c2ccc(C(=O)Nc3ccccc3C(=O)N3CCOCC3)cc2)cc1 | – | inactive: -7.75% |
| O=C1CC(/C=C/c2ccc([N+](=O)[O-])cc2)=Nc2ccccc2N1 | – | inactive: -15.3% |
| Oc1cc2c(cc1C(c1ccc(Cl)c(Cl)c1)N1CCCC1)OCO2 (stereo unspecified) | active: 3.55 µM | – |
| C/C(CC(=O)NC1CCCCCC1)=N\NC(=O)c1cnccn1 | inconclusive: 79.4 µM [inhibitor, single point] | – |
| COC(=O)C1=CN(C)C=C(C(=O)OC)C1c1ccccc1Cl | inconclusive: 70.8 µM [inhibitor, single point] | – |
| COc1ccc(-n2c(SCC(=O)NCc3ccco3)nc3c([nH]c4ccccc43)c2=O)cc1 | inconclusive: 79.4 µM [inhibitor, partial curve, poor fit] | – |
| CCOC(=O)c1cc2c(=O)n3ccccc3nc2n(Cc2ccco2)c1=NC(=O)c1cccc(C)c1 | inconclusive: 3.55 µM [inhibitor, full curve, poor fit] | – |

| Structure (SMILES) | Potency | activity change, negative = inhibition |
| --- | --- | --- |
| Cc1cccc(N2CCN(C(=O)c3cnn(-c4ccc(F)cc4F)c3C3CCN(C(=O)OC(C)(C)C)CC3)CC2)c1C | – | inactive: 2.84% |
| Fc1ccccc1NC(=S)Nc1ccc(Br)cc1 | inconclusive: 14.1 µM [inhibitor, partial curve, poor fit] | – |
| O=[N+]([O-])C1=CC=C2C(=NC3(CCCCC3)N2O)C1=NCCO | inconclusive: 79.4 µM [inhibitor, single point] | – |
| COCc1cc(C)nc2sc(C(=O)Nc3ccc(C(C)=O)cc3)c(N)c12 | inconclusive: 6.31 µM [inhibitor, partial curve, poor fit] | – |
| COc1cccc(NC(=O)c2sc3nc(C)c(C(=O)Nc4ccc(C)cc4C)c(-c4ccco4)c3c2N)c1 | – | inactive: 9.59% |
| CCc1ccc(NC(=O)C2CCCN2S(=O)(=O)c2ccc3nc(-c4ccccc4)[nH]c3c2)cc1 (stereo unspecified) | – | inactive: 5.83% |
| O=C1c2ccccc2N2C(=O)c3ccccc3C2N1Cc1ccco1 (stereo unspecified) | inconclusive: 14.1 µM [inhibitor, full curve, poor fit] | – |
| COc1ccc(/C=C2\C=Cc3ccccc32)cc1OC | – | inactive: -17.8% |
| COc1ccc(-n2ncc(C(=O)N3CCN(C4CCCCC4)CC3)c2C2CCN(C(=O)OC(C)(C)C)CC2)cc1 | inconclusive: 44.7 µM [inhibitor, partial curve] | – |
| COC(=O)c1c(C)oc2c1cc(NS(=O)(=O)c1ccc(C(=O)O)cc1)c1ccccc12 | inconclusive: 89.1 µM [inhibitor, single point] | – |
| CCOC(=O)C1=CN(Cc2ccco2)S(=O)(=O)N(CC)C1c1ccc(C(F)(F)F)cc1 (stereo unspecified) | inconclusive: 44.7 µM [inhibitor, partial curve] | – |
| CC(C)CNC(=O)C1Nc2ccccc2C2C=CCC12 (stereo unspecified) | active: 10 µM | – |
| CCOc1cc(/C=C2\C(=N)N3N=C(S(C)(=O)=O)SC3=NC2=O)ccc1OCCOc1cccc(OC)c1 | inconclusive: 79.4 µM [inhibitor, partial curve, poor fit] | – |
| O=C1CSC(=S)N1/N=C/c1cccnc1 | inconclusive: 14.1 µM [inhibitor, partial curve] | – |
| FC(F)(F)c1cc(-c2ccco2)nc(NCc2cccnc2)n1 | inconclusive: 39.8 µM [inhibitor, partial curve, poor fit] | – |
| Cc1ccc(/C=C/C(=O)OCc2nc(N)nc(Nc3ccccc3C)n2)o1 | inconclusive: 22.4 µM [inhibitor, partial curve, poor fit] | – |
| Cc1cccc(-n2ncc(Cl)c(Cl)c2=O)c1 | active: 44.7 µM | – |
| CCN(CCO)c1nc(SC)nc2c1sc1nc(-c3ccco3)c3c(c12)CCC3 | inconclusive: 10 µM [inhibitor, full curve] | – |
| COc1ccc(N2C(=O)CC(Nc3ccc(N4CCOCC4)cc3)C2=O)c(OC)c1 (stereo unspecified) | inconclusive: 63.1 µM [inhibitor, single point] | – |
| CCn1c(O)c(/C=N/n2cnnc2)sc1=S | inconclusive: 31.6 µM [inhibitor, partial curve, poor fit] | – |
